This is one part of the list. Cleavage of a single-stranded DNA pool by Rep nickase domains was read by sequencing (1 h at 37 °C, 3 µM enzyme); the outer parts of the 90-letter strands are left off. Uncut reads are compared with the no-enzyme pool on a log2 scale; strong cutting gives strongly negative numbers. There is no active / inactive call. Reads are scaled to the total; uncut strands gain when others are lost, and binding without cutting may add a little.
Key:
Test in all cases: uncleaved DNA left, log2 of reads against the no-enzyme library (log2 ratio); higher = less cleavage (more negative = more Rep cleavage of the k-mer); sequences stand for … in CTCGTCCG…ACCGGAGA
[1] = tested on: T1, Rep nickase domain of Muscovy duck circovirus
T1 sequence (Rep 1-111, printed without the tag): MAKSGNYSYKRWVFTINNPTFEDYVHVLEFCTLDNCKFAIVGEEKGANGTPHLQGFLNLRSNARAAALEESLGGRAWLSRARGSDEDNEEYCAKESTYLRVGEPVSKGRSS
Method: (§1)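 A pool of 90-nt single-stranded DNAs with seven random bases just before the constant AC of the nick site (name = the seven bases) was cut by 3 µM recombinant His6-SUMO-tagged Rep nickase domain (300 nM DNA, 50 mM HEPES pH 8.0, 50 mM NaCl, 1 mM MnCl2, 1 h, 37 °C, three replicates). Uncut DNA was amplified and sequenced.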

[2] = tested on: T2, Rep nickase domain of banana bunchy top virus
T2 sequence (Rep 1-94, printed without the tag): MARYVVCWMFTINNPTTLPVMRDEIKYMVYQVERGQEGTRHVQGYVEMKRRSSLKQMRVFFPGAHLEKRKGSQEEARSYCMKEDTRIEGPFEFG
Method: as §1

[3] = tested on: T3, Rep nickase domain of cabbage leaf curl virus
T3 sequence (Rep 1-116, printed without the tag): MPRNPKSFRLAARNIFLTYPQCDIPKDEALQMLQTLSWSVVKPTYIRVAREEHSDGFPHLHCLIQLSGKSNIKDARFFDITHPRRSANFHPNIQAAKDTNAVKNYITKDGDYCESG
Method: as §1

[4] = tested on: T4, Rep nickase domain of chickpea chlorotic dwarf virus
T4 sequence (Rep 1-124, printed without the tag): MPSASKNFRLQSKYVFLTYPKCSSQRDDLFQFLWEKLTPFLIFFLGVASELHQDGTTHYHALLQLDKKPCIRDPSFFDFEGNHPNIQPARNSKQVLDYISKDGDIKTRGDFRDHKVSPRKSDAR
Method: as §1

[5] = tested on: T5, Rep nickase domain of faba bean necrotic yellows virus
T5 sequence (Rep 1-98, printed without the tag): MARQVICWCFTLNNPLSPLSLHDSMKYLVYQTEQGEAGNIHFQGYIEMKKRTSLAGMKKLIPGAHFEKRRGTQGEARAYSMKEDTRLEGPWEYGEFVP
Method: as §1

[6] = tested on: T6, Rep nickase domain of maize striate mosaic virus
T6 sequence (Rep 1-117, printed without the tag): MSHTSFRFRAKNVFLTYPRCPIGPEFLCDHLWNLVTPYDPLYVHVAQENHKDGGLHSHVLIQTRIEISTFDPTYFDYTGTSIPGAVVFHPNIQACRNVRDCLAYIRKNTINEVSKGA
Method: as §1

[7] = tested on: T7, Rep nickase domain of porcine circovirus 2
T7 sequence (Rep 2-116, printed without the tag): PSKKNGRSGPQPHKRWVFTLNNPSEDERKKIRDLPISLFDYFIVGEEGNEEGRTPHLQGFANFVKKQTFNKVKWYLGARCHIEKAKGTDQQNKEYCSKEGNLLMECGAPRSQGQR
Method: as §1

[8] = tested on: T8, Rep nickase domain of tomato yellow leaf curl virus
T8 sequence (Rep 1-136, printed without the tag): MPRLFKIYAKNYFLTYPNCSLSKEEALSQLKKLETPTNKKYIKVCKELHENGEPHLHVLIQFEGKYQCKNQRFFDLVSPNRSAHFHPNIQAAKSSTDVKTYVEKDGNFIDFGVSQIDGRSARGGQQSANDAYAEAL
Method: as §1

[9] = tested on: T9, Rep nickase domain of wheat dwarf virus
T9 sequence (Rep 1-137, printed without the tag): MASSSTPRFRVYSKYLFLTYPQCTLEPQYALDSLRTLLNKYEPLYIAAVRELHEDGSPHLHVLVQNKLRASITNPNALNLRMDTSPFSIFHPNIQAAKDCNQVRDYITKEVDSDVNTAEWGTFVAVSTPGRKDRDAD
Method: as §1

| Sequence | uncleaved DNA left (log2) [1] | uncleaved DNA left (log2) [2] | uncleaved DNA left (log2) [3] | uncleaved DNA left (log2) [4] | uncleaved DNA left (log2) [5] | uncleaved DNA left (log2) [6] | uncleaved DNA left (log2) [7] | uncleaved DNA left (log2) [8] | uncleaved DNA left (log2) [9] |
| --- | --- | --- | --- | --- | --- | --- | --- | --- | --- |
| CTGGCGC | 0.033 | 0.0837 | -0.663 | -0.391 | 0.00201 | -0.595 | 0.259 | 0.0918 | -0.262 |
| TGACAAG | -0.0854 | -0.0111 | -0.512 | -0.45 | -0.0289 | -1.01 | -0.044 | 0.114 | -0.0645 |
| AACCCCA | 0.0261 | 0.0789 | 0.531 | -0.589 | 0.0335 | 0.752 | -0.223 | -0.0401 | 0.143 |
| AAGCCGT | 0.044 | -0.0338 | -0.212 | -0.533 | 0.125 | -0.523 | -0.123 | -0.0996 | 0.0319 |
| ACCCCTA | -0.0363 | -0.000438 | -0.149 | -1.08 | 0.22 | -0.598 | -0.187 | -0.00299 | -0.0763 |
| GCCAGGA | -0.0556 | -0.0879 | 0.191 | 0.473 | -0.00651 | 0.138 | 0.0146 | -0.0499 | 0.0432 |
| TATCGGT | 0.0584 | 0.0384 | 0.16 | -0.0352 | 0.02 | 1.14 | -0.104 | -0.014 | 0.0931 |
| TGGACCT | 0.199 | 0.133 | 0.809 | 1.78 | 0.0412 | 2.16 | 0.297 | 0.0984 | 0.306 |
| CCTTGAC | -0.208 | -0.269 | -0.291 | -2.18 | -0.165 | -1.13 | 0.0143 | -0.206 | -0.253 |
| GTTCATG | -0.134 | -0.0769 | 0.0309 | 0.301 | -0.0377 | 0.173 | -0.0119 | -0.00391 | -0.0848 |
| TAAACTG | 0.111 | 0.047 | -0.0243 | 0.427 | -0.00884 | 1.28 | 0.0997 | -0.0399 | 0.0796 |
| ACCGTAA | -0.0952 | -0.0419 | -0.391 | -0.273 | 0.061 | -0.837 | 0.119 | -0.088 | -0.0468 |
| TGACCGA | -0.11 | -0.045 | 0.0557 | 0.284 | -0.0335 | 0.531 | 0.0243 | -0.0564 | 0.109 |
| GGTATCA | 0.0458 | 0.156 | 0.561 | 1.26 | 0.0785 | 1.93 | 0.101 | 0.207 | 0.252 |
| TTCTCTG | 0.045 | -0.119 | -0.0317 | -0.294 | -0.108 | -0.203 | -0.059 | -0.0558 | -0.00707 |
| TTGCGGT | 0.088 | 0.0849 | -0.585 | -0.624 | 0.105 | -0.881 | 0.152 | 0.0345 | -0.148 |

| Sequence | uncleaved DNA left (log2) [1] | uncleaved DNA left (log2) [2] | uncleaved DNA left (log2) [3] | uncleaved DNA left (log2) [4] | uncleaved DNA left (log2) [5] | uncleaved DNA left (log2) [6] | uncleaved DNA left (log2) [7] | uncleaved DNA left (log2) [8] | uncleaved DNA left (log2) [9] |
| --- | --- | --- | --- | --- | --- | --- | --- | --- | --- |
| GGTTGCT | -0.208 | -0.0453 | -0.345 | -0.454 | -0.0107 | -0.379 | -0.951 | -0.0141 | -0.122 |
| ACATGCA | -0.00418 | 0.0317 | -0.537 | -0.667 | 0.0871 | -0.979 | 0.131 | 0.238 | 0.0121 |
| GACATAT | -0.129 | -0.144 | 0.446 | 1.02 | -0.144 | 1.64 | -0.0639 | -0.0563 | 0.0124 |
| GTGGGTT | -0.145 | -0.0673 | 0.328 | 1 | -0.0604 | 1.73 | 0.12 | -0.0605 | 0.0191 |
| GTCCTTA | -0.00972 | 0.145 | 0.407 | 0.825 | 0.0702 | 1.78 | 0.11 | 0.173 | 0.178 |
| AGTGGGT | 0.178 | 0.0467 | 0.159 | 1.35 | -0.0126 | 1.73 | -0.159 | -0.129 | 0.0862 |
| GTTGCTG | 0.0601 | -0.0202 | -0.228 | 0.0392 | -0.0229 | -0.0556 | 0.111 | -0.171 | -0.129 |
| TCCAGGT | -0.013 | -0.114 | 0.327 | 1.27 | -0.0827 | 1.64 | 0.107 | -0.121 | 0.0252 |
| GCTACCC | -0.0567 | 0.0741 | 0.0278 | -0.33 | 0.0189 | 0.263 | -0.525 | 0.0702 | 0.04 |
| GTTAGCG | 0.106 | 0.073 | -0.685 | 0.408 | 0.0945 | -0.691 | 0.127 | 0.0541 | 0.0307 |
| GCGAGTT | 0.0283 | 0.0707 | 0.112 | 0.213 | -0.0519 | 1.09 | 0.0186 | -0.055 | -0.0641 |
| ACAAGCA | 0.00828 | 0.00954 | -0.494 | -1.07 | -0.0101 | -0.972 | 0.0356 | 0.0596 | 0.000752 |
| TTGGACT | 0.00708 | 0.104 | 0.625 | 1.24 | -0.0524 | 1.9 | 0.153 | 0.0569 | 0.107 |
| TAGTTTA | -0.32 | -0.444 | -0.348 | -2.42 | -0.891 | -0.234 | -2.87 | 0.0123 | 0.0216 |
| TTATCCG | -0.118 | -0.155 | -0.944 | -0.204 | -0.101 | -1.11 | 0.0755 | -0.0769 | -0.225 |
| TCGGTCT | -0.0824 | -0.017 | 0.222 | -1.05 | 0.036 | 0.121 | -0.126 | -0.0272 | 0.0737 |
